Values joined by “and” are separate entries in the source; they are usually repeats but may differ in a detail not shown here. Equal values may be shown once. The whole screen tested about 310,000 compounds, of which about 11,000 (3.5%) were called active. This list was built around the results that the source calls inconclusive (neither active nor inactive); the mix of calls is not that of the screen. The call rests on the fitted dose curve; in most records, active means well fitted inhibition curve with a large enough effect; inconclusive means small, poorly fitted or top-dose-only effect, or effect the other way; inactive means flat fitted curve, though single readings scatter. No potency is given beside an inconclusive call; the fits are too rough. A structure can be active in one record and inactive in another.
Test: VP16 counterscreen qHTS for inhibitors of ROR gamma transcriptional activity;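 further: Gal4-VP16 expression switched on by copper sulfate through the metallothionein promoter; nearly all actives have a fitted effect of over 50% in size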
Settings: Drosophila S2 Gal4-VP16 UAS-luciferase, luminescence, 20 h; series mostly up to 53.6 µM
Potency means the concentration at half of the fitted maximal effect; tags describe the fitted curve by direction and shape.

| SMILES | Potency |
| --- | --- |
| CCOCCCNC(=S)N1CCCN(c2nc3cc(C)cc(C)c3cc2C#N)CC1 | inconclusive [inhibitor, single point] |
| OC[C@H](S)CS | inconclusive [inhibitor, single point] |
| Cc1nc2nc[nH]c2cc1Br | inactive |
| CCOC(=O)c1c(C)[nH]c(N=Nc2ccccc2C)c1C | inconclusive [inhibitor, partial curve] |
| S=c1[nH]nc(CSCCOc2ccc(Cl)cc2Cl)o1 | active: 3.16 µM |
| C[Si](C)(C)O[Si](C)(C)C | inactive |
| O=C(N/N=C/c1ccccn1)c1ccc(Cl)cc1 | active: 2.51 µM |
| CCN(CC)C(=O)C(C(=O)c1cccc([N+](=O)[O-])c1)n1cc(Cl)ccc1=O (stereo not drawn) | inactive |
| CCC(=O)Nc1cc(=O)[nH]c2ncnn12 | inactive |
| Cc1nc2ccccc2c(=O)n1/N=C/c1ccccc1 | inconclusive [inhibitor, single point] |
| O=C(Nc1ccccc1C(=O)OCc1nnc(-c2ccccc2)o1)c1ccco1 | inactive |
| CCOc1ccc2c(c1)C(C)=CC(C)(C)N2C(=O)Nc1ccccc1 | inconclusive [activator, single point] |
| CC(=O)Nc1cccc(NC(=O)c2csc(C)c2)c1 | inactive |
| Cn1ncc2c(=O)n(/N=C/c3ccccc3)cnc21 | inactive |
| COc1cccc(-c2cc(=O)c3ccccc3o2)c1N | inconclusive [inhibitor, single point] |
| Cc1cccc(N=c2c([N+](=O)[O-])nn(-c3ccc(Cl)cc3)n2O)c1 | inconclusive [activator, single point] |
| CCc1cccc(NS(=O)(=O)c2csc(C(N)=O)c2)c1 | inconclusive [inhibitor, single point] |
| Cc1nnc(SCC(=O)Nc2ccc(-c3nc4ccccc4s3)cc2)s1 | inconclusive [inhibitor, full curve, poor fit] |
| O=C(Nc1ccccc1)Nc1nnc(Cc2ccc([N+](=O)[O-])cc2)s1 | inconclusive [inhibitor, partial curve] |
| CC(=O)c1ccc(NC(=S)N2CC(C)CC(C)C2)cc1 (stereo not drawn) | inconclusive [inhibitor, single point] |
| CC(C)COc1cccc(C(=O)NC(=S)NCc2cccnc2)c1 | inconclusive [inhibitor, single point] |
| Cc1cccc(C)c1-n1c(C)cc(/C=N/NC(=O)CSc2ncccn2)c1C | active: 15.8 µM |
| CC1CCC(C(C)C)C(OCC(O)CNC(C)c2ccccc2)C1 (stereo not drawn) | inconclusive [inhibitor, single point] |
| Cn1c(CSCc2ccc(Cl)cc2Cl)n[nH]c1=S | active: 6.31 µM |
| Cc1cccc(/C=N/n2c(-c3ccccc3)n[nH]c2=S)c1O | inconclusive [inhibitor, partial curve] |

| SMILES | Potency |
| --- | --- |
| O=C(O)CCCNc1n[nH]c(=O)[nH]c1=O | inconclusive [inhibitor, partial curve, poor fit] |
| CCOc1ccccc1NC(=O)c1nc(S(=O)(=O)Cc2ccccc2)ncc1Cl | active: 4.47 µM |
| CCCCCn1c(N2CCOCC2)nc2c1c(=O)n(CC(N)=O)c(=O)n2C | inconclusive [inhibitor, single point] |
| CCCCCCCCCCCCCCC[C@H](O)[C@H](N)CO | inconclusive [inhibitor, single point] |
| CCC1=NN(C(=O)C(=O)Nc2ccccc2OC)C(O)(C(F)(F)F)C1 (stereo not drawn) | inconclusive [inhibitor, single point] |
| CC1(C)CC(=O)C2=C(C1)Nc1ccccc1N=C2 | inconclusive [inhibitor, single point] |
| CC(C)(C)NC(=O)NC(=O)CN1CCN(c2cccc(Cl)c2)CC1 | inconclusive [inhibitor, single point] |
| COc1ccc(C)cc1NC(=O)C1CCN(C(=O)c2ccc(C(C)(C)C)cc2)CC1 | inconclusive [activator, full curve, poor fit] |
| CCOC(=O)[C@@H]1[C@H]2COc3cc(OC)ccc3[C@@H]2N2C(=O)N(c3ccc(Cl)cc3)C(=O)[C@@]12C | inconclusive [inhibitor, single point] |
| CCC(=O)Nc1nc(-c2ccc3c(c2)OCCO3)cs1 | inconclusive [activator, partial curve] |
| Cc1cc(NC(=S)Nc2cccc3ccccc23)n[nH]1 | active: 5.01 µM |
| CCCOc1cccc(-c2cc(C(=O)NNC(=S)NCC)c3ccccc3n2)c1 | inconclusive [inhibitor, single point] |
| COc1ccc(CNC(=O)C(CCSC)NC(=O)c2ccco2)cc1 (stereo not drawn) | inactive |
| CCCCCSc1nnc(N)s1 | inactive |
| COC(=O)c1scc(S(=O)(=O)C(C)C)c1N/N=C(\C#N)C(=O)c1ccc(Cl)cc1 | inconclusive [inhibitor, single point] |
| CC(=O)Nc1ccc(S(=O)(=O)NCCc2ccccc2)cc1 | inconclusive [inhibitor, single point] |
| CC(=O)NS(=O)(=O)c1ccc(NC(=O)CCc2ccccc2)cc1 | inconclusive [activator, single point] |
| CCOc1ccccc1Oc1cn[nH]c1-c1ccc(O)cc1O | inconclusive [inhibitor, single point] |
| CCCCC/C=N\NC(=O)Cc1ccc([N+](=O)[O-])cc1 | inconclusive [inhibitor, single point] |
| COc1ccc(CCN2C(=NC(=O)CCC(=O)O)SC3CS(=O)(=O)CC32)cc1OC (stereo not drawn) | inconclusive [inhibitor, partial curve] |
| COc1ccc2c(c1)c(C(C)=O)c(C)n2-c1ccccc1 | inactive |
| CC(NC(=O)CCCCCN1C(=O)c2ccccc2C1=O)c1ccc2c(c1)CCCC2 (stereo not drawn) | inactive |
| COc1ccc(C(=O)NCCN2C(=O)S/C(=C\c3cccnc3)C2=O)c(OC)c1OC | inconclusive [inhibitor, single point] |
| COc1ccc(NC(=O)CSc2c3c(nc4ccccc24)CCCC3)c(OC)c1 | inconclusive [inhibitor, single point] |
| Cc1[nH]n(C(N)=S)c(=O)c1N=Nc1ccc(S(=O)(=O)N2CCCC2)cc1 | active: 1.26 µM |

| SMILES | Potency |
| --- | --- |
| c1ccc2c(c1)oc1c(NCc3ccc4c(c3)OCO4)ncnc12 | inconclusive [inhibitor, single point] |
| COc1cc(C(=S)N2CCOCC2)ccc1OC(=O)/C=C/c1ccco1 | active: 17.8 µM |
| CCCn1c(=S)[nH]c2ccccc2c1=O | active: 7.94 µM |
| COc1ccc(C)cc1NC(=O)CNc1ccc(C(C)=O)cc1 | inconclusive [activator, single point] |
| COc1ccccc1C(=O)Nc1nc2cc3c(cc2s1)OCCO3 | inconclusive [inhibitor, single point] |
| Cn1nnnc1SC(C(=O)Nc1ccc(F)cc1)c1ccccc1 (stereo not drawn) | inactive |
| CC(C)(C)c1ccc(NC(=O)Nc2ccc(OCC(=O)N3CCOCC3)cc2)cc1 | inconclusive [inhibitor, single point] |
| CCCCCC1=C2CNC(C)(C(=O)OC)C=C2C(C)C1=O (stereo not drawn) | inactive |
| CCCC(NC(=O)CCc1c(C)c2cc3c(-c4ccccc4)coc3cc2oc1=O)C(=O)O (stereo not drawn) | inconclusive [inhibitor, partial curve] |
| COc1ccc2nc(N3CCCC(O)C3)c(C#N)cc2c1 (stereo not drawn) | inconclusive [inhibitor, partial curve] |
| COc1ccc(/C=N/NC(=O)c2ccc(Br)cc2)cc1Cn1cc(Cl)cn1 | inconclusive [inhibitor, partial curve] |
| COc1cc2nc(NC(=O)c3ccc(F)cc3Cl)sc(=O)c2cc1OC | inactive |
| COc1ccc2cc(-c3cc(C(=O)OCC(=O)Nc4c(C)n(C)n(-c5ccccc5)c4=O)c4ccccc4n3)ccc2c1 | inconclusive [inhibitor, partial curve] |
| CCOC(=O)C1CCCN(C(=S)Nc2ccc(C)cc2C)C1 (stereo not drawn) | inconclusive [inhibitor, single point] |
| CCCCSCCCNC(=S)Nc1ccccc1C | inconclusive [inhibitor, single point] |
| CCOc1ccccc1NC(=O)C1CCCN(S(=O)(=O)c2ccc3c(c2)C(C)(C)C(=O)N3C)C1 (stereo not drawn) | inactive |
| C=CCNC(=S)Nc1ccc(Br)cc1F | inconclusive [inhibitor, single point] |
| Cc1ccc(S(=O)(=O)/N=C2\C=C(Nc3cccc(C(=O)O)c3)C(=O)c3ccccc32)c(C)c1 | inconclusive [inhibitor, single point] |
| CSc1nsc(NC(=O)OCc2ccc(Cl)cc2)n1 | inconclusive [inhibitor, single point] |
| Oc1c(I)cc(Cl)c2cccnc12 | active: 501 nM and active: 1 µM |
| O=C(CNC(=S)N(CCCN1CCOCC1)Cc1cccs1)NC1CCCCCCC1 | inactive |
| COCCNC(=O)C1(C(F)(F)F)C/C(=C\Cc2ccccc2)CCCO1 (stereo not drawn) | inconclusive [inhibitor, single point] |
| CCCn1c(O)c(N=NC(=O)c2ccco2)c2ccccc21 | inconclusive [inhibitor, partial curve] |

Reference: PubChem BioAssay AID2546 (National Center for Advancing Translational Sciences (NCATS), 2010)
